# Measured values as given in the supplement of paper PMC12217912.
# This is one part of the list. The full chains were built here from the parent and the listed change. Values near 0.05 are background.
# B1: TEV protease; numbered along this chain (parent)
# chain: MGESLFKGPRDYNPISSSICHLTNESDGHTTSLYGIGFGPFIITNKHLFRRNNGTLVVQSLHGVFKVKDTTTLQQHLVDGRDMIIIRMPKDFPPFPQKLKFREPQREERICLVTTNFQTKSMSSMVSDTSCTFPSGDGIFWKHWIQTKDGQCGSPLVSTRDGFIVGIHSASNFTNTNNYFTSVPKNFMELLTNQEAQQWVSGWRLNADSVLWGGHKVFMVKPEEPFQPVKEATQL
# Variants of: B1
# Test: raw area under fraction-flipped curve 0-4 h after induction (AUC4h, not background-subtracted), DNA-recorder readout of cleavage of the substrate (dimensionless); higher = more cleavage of the substrate by the protease variant
# Settings: temperature: 34 °C; time window: 0-4 h after rhamnose induction
# Experimental: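 In vivo DNA recorder in E. coli TOP10(DE3) ΔrhaA at 34 °C. Each TEVp single-site mutant (parent TEVp 0) is paired with a single-site variant of the 7-mer TEVs (canonical ENLYFQ|S). The substrate sits between flexible linkers in a Bxb1-sfGFP-TEVs-SsrA fusion, so cleavage stabilises Bxb1 and speeds flipping of a recombination array, read by NGS. The value is the raw area under the fraction-flipped curve over 0-4 h after rhamnose induction (AUC4h), with ≥20 reads per time point. It is not background-subtracted; inactive controls average about 0.047.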
# 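Note: Bxb1 expression induced with 0.2% (w/v) L-rhamnose at OD600 near 0.5, cultures sampled hourly, flipped fraction per protease–substrate barcode pair counted by paired-end Illumina sequencing.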
Variant,area with substrate ENLYAQS,area with substrate ENLYCQS,area with substrate ENLYDQS,area with substrate ENLYEQS,area with substrate ENLYGQS,area with substrate ENLYHQS,area with substrate ENLYIQS,area with substrate ENLYKQS,area with substrate ENLYMQS,area with substrate ENLYNQS,area with substrate ENLYPQS,area with substrate ENLYQQS,area with substrate ENLYRQS,area with substrate ENLYSQS,area with substrate ENLYTQS,area with substrate ENLYVQS,area with substrate ENLYWQS,area with substrate ENLYYQS,area with substrate ENLYLQS
E108N,0.06,0.0652,0.0588,0.0506,0.0642,0.0475,0.103,0.0509,0.0694,0.0538,0.0689,0.0635,0.0549,0.0685,0.0691,0.0836,0.0468,0.059,
G213Y,0.0693,,0.0737,,0.0432,0.0515,,0.058,,0.0651,0.0594,0.0517,0.0714,0.057,,0.0353,0.0496,0.0561,0.0582
S60F,0.0706,0.104,,0.0609,0.0588,0.0994,0.158,0.0311,,0.0736,0.0768,,0.0606,0.111,0.0748,0.128,,,
S60V,0.0601,0.0709,0.0609,0.0598,0.0569,0.0566,0.108,0.0635,0.07,0.072,0.0695,0.0571,0.0579,0.0627,,0.108,0.0792,0.0603,
R160A,0.0744,0.0814,,0.0678,0.0682,0.0726,,0.0699,0.0737,0.067,0.053,,0.0714,0.0611,,0.129,0.0742,,
P94E,0.0757,,0.055,0.0621,0.0658,0.0598,0.114,0.0565,0.076,,0.0878,0.058,0.043,0.111,,,,0.0752,0.105
L33F,0.0711,,0.067,0.0611,0.0683,0.0668,,0.0683,0.0656,0.0588,0.0525,0.062,0.0597,0.0576,,0.065,0.0559,0.06,
S123T,0.068,,,0.083,0.0758,0.0713,0.142,0.0603,0.132,0.0681,0.0723,0.0475,0.0603,0.0796,0.116,0.137,0.093,,0.071
H215G,0.0428,,0.0622,0.07,0.0623,,0.0674,,0.0534,0.0593,0.0581,0.0613,0.0622,0.058,0.0566,0.0631,0.0662,0.0546,0.0911
T44L,0.0589,,0.0509,0.0548,0.0615,0.0603,0.075,0.0216,,0.0665,0.0544,,0.0634,0.0601,,,0.0509,0.0557,0.0645
F95R,0.0661,0.0606,0.061,0.0513,0.0626,0.0577,0.0478,,0.0519,0.0388,0.0515,,0.0609,,,0.0685,0.0537,,0.0654
D11I,0.061,0.0903,0.0679,0.0698,0.0661,0.0475,0.131,,0.0847,0.07,0.0672,0.0697,,,,0.106,,,
F180I,0.0596,,0.0635,0.0669,0.0493,0.0501,0.0605,0.0573,,0.0523,0.081,0.0393,0.0614,,,0.0593,0.0331,0.0601,
G150F,0.0685,0.0494,0.0725,0.0575,0.0602,0.0464,0.0703,0.0621,0.0559,0.0543,0.0601,0.0419,0.0717,0.0534,0.0681,,0.06,0.0407,
G150L,0.0616,0.0638,0.0694,0.0583,0.0635,0.0572,0.0574,0.0419,0.0632,0.0557,0.0583,,0.0625,0.0671,,0.0511,0.0556,0.0582,
Y34C,0.0805,,0.0494,0.0673,0.102,0.0706,,0.0553,0.0726,,0.0663,,0.0652,,,,0.0873,0.0616,
V200E,0.0825,,,0.0655,,,0.0923,,,0.0547,,0.0601,,,,,,,
S135I,0.0607,0.0819,0.0567,0.0593,0.0623,0.057,0.0704,0.0503,,0.0634,0.0537,0.0641,0.0657,0.0651,0.055,0.0996,0.0554,0.0554,
V57M,0.0687,0.123,0.0979,0.0588,0.0791,0.0735,0.0843,0.0646,0.0818,0.0556,,0.0686,,0.0844,,,0.0803,,0.0875
V113C,0.0354,,0.0587,0.0688,0.0664,0.0701,0.137,0.0197,0.0885,0.0712,0.0774,0.0566,,0.0771,0.0844,0.126,0.0657,0.0803,
F226Y,0.0736,,0.0685,0.063,,0.067,0.146,0.0543,,0.061,0.0811,,0.0537,0.0712,,0.137,0.0931,,
D79V,0.0945,,,0.0719,0.0575,0.0654,0.113,,0.0765,0.0711,0.0804,0.0551,0.0632,0.074,,0.116,0.0799,0.0786,
D79L,0.0726,,0.0664,0.0715,0.0812,0.0619,0.101,,0.0848,0.0648,,,0.0655,,0.0403,0.0922,0.0715,,
L22A,0.0652,,0.0461,0.0528,0.0589,0.0487,0.0838,,0.0585,0.0516,0.0489,0.0556,0.0545,0.0661,0.0531,0.079,0.0584,,
S209C,0.0726,,0.0537,0.069,0.0678,0.0648,,0.0646,0.093,0.0571,,0.0596,0.0753,,0.0865,0.106,0.0685,,
